Laboratory results from the supplement of paper PMC11417369.
± gives the standard deviation of the averaged measurements. The list shows a part of the results.

Tested on: PfAP2-LT AP2 domain (GST-tagged)
Assay: gcPBM binding intensity (ln(normalized median fluorescence intensity)); higher = stronger DNA binding
Method in brief: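 Probes on an Agilent 4 × 180k array were primer-extended, double-stranded and 36 bp long, taken from intergenic genomic regions, with negative controls added. GST-tagged P. falciparum DNA-binding domains from E. coli, about 25 μg on average, were applied to the array for 1 h in 1× PBS containing 1% milk, 0.2 mg/ml BSA, 0.5% salmon testes DNA and 0.03% Triton X-100. Binding intensity, obtained after Alexa488 anti-GST antibody detection and a 488 nm scan, is the highest Masliner-normalised natural-log median intensity across replicate spots of either probe orientation.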

Sequence | gcPBM binding intensity (ln)
ATATGTATTAAGTGTACACATATAATCTATCTTGTT [CACACA_site5329] | 8.96 ± 0.42
TTTTTTTTATATAGTAGTACTAATTAGAATTTTTAT [XGTACX_site7476] | 8.38 ± 0.53
TGAATTTAGATATATACACACAAAAGTATATACAAT [CACACA_site2804] | 9.02 ± 0.42
TATATGTTTTATAGTACACACATAAATGGACATACT [CACACA_site2191] | 8.97 ± 0.35
ATAAATGACAAATTAACACACATATATTATATATAT [CACACA_site3899] | 8.98 ± 0.39
GTTGGTAGGCGGTACGGTACACGTAAAGTTTTTCTT [XGTACX_site7706] | 8.84 ± 0.54
ACCATATAAATAAACACACACACACGGATATAAATA [CACACA_site7157] | 10.1 ± 0.2
TAATGCCATAATACGTGTACTTAATATATTAGAACA [XGTACX_site5809] | 8.75 ± 0.35
TACATACATACATACACACATACATATGTATATATA [CACACA_site2480] | 9.3 ± 0.33
CTCAAATGTTATTGTAGTACCTAAAAAATATATTCT [XGTACX_site1970] | 8.52 ± 0.37
TTATAATAATAGAACTTTATGTAGAAAAAAGGAAAA [XGTACX_negctrl_site116] | 8.44 ± 0.51
ACACATACTAAAATGTTGTGAAATATGATAATGTGA [CACACA_negctrl_site851] | 9.11 ± 0.47
TATATATATATATATAGTACATATTAATTAATTTAT [XGTACX_site8198] | 9.12 ± 0.37
ATATATTTTAAATATATTATTATTGCATTGTGAAAA [TGCATGCA_negctrl_site106] | 8.35 ± 0.33
TCTTAAAAAATAGGGACACGTAAATATAATATATAA [CACACA_negctrl_site554] | 8.68 ± 0.47
AAAAAAAAAAAAAAAACACACATATATATATATATA [CACACA_site2436] | 10.095 ± 0.0071
TTTAAAACCTTACATACACACAAATATGTAAATATA [CACACA_site6464] | 8.75 ± 0.42
TTCATATAACCTTATAGTACATAATTAAAAATATAA [XGTACX_site6328] | 8.31 ± 0.33
AAAAAAAAAAAAAAAACACACATATAGGTATAAATA [CACACA_site7528] | 8.83 ± 0.45
CACGCATATATACATACATGCATATATACATCCATG [TGCATGCA_site667] | 8.98 ± 0.41
TATTATTCTATACATTGTACATATTTTATAGTATGT [XGTACX_site73] | 8.94 ± 0.48
AAAAAAAAAAAATAGACACACATATTATATATATAT [CACACA_site1419] | 8.99 ± 0.42
ATGTGTTGGGAAAAGGCATGCACTTTTTTTTTTTTT [TGCATGCA_site707] | 8.85 ± 0.52
TTTTCCTTATATTATGCATGCAGGGTTTGACATTAT [TGCATGCA_site826] | 9.12 ± 0.32
